The text below walks through data of article PMC5350466 (mBio, 2017).

The subject of the test is P. aeruginosa PAO1. To be noted: in vivo. How it is done:
Larval infection assays were performed as previously described ([53]), with modifications. Overnight cultures were diluted in PBS, pH 7.4, with or without B. cenocepacia BCNs at a 1.5 µM final concentration to the following OD600s: B. cenocepacia and P. aeruginosa PAO1, 0.00004; K. pneumoniae Kpn18, 0.04; A. baumannii AB1, 0.4; S. aureus USA300, 0.004. The larvae were injected with 10 µl of the bacterial suspensions or sterile PBS (10 larvae/group in each experiment) with 10-µl MICROLITER syringes (Hamilton). The larvae were incubated at 30°C, and their viability was checked at regular time intervals. In similar assays, five larvae/group were sacrificed at 200 min postinfection and the hemolymph was extracted as previously described ([53]). The hemolymph was immediately serially diluted in PBS and plated on LB agar supplemented with 0.3% cetrimide or 200 µg/ml ampicillin–25 µg/ml PmB to quantify the CFU of P. aeruginosa PAO1 or B. cenocepacia, respectively, recovered from the infected larvae.

In the case of `Cc1c(C)c2c(c(C)c1O)CC[C@@](C)(CCC[C@H](C)CCC[C@H](C)CCCC(C)C)O2` [Vit E, α-tocopherol], the “effect on survival advantage of P. aeruginosa in BcnA-treated larvae” value is “significantly reduced the survival advantage of P. aeruginosa”.
Turning to menaquinone [Vit K2], the “effect on survival advantage of P. aeruginosa in BcnA-treated larvae” value was “significantly reduced the survival advantage of P. aeruginosa”.
